Measured values taken from patent US9994626B2, “Stable polypeptides binding to human complement C5” (Swedish Orphan Biovitrum AB (publ), priority 2013, dated 2018).
Entries after “also recorded” stand apart in the source; their conditions may differ. Where two headings read alike, the source gives them in different places.

Columns and labels:
[1] = 3 month stability test at 37° C., RPC; assay type: physicochemical
Description: The 2 weeks data from example 2 is included in Table VIII below to make the interpretation easier.

[2] = Accelerated stability study, 2 weeks at 37° C., SDS-PAGE and Reversed Phase HPLC (RPC); conditions: for stability when compared with PSI0242: 2 weeks at 37° C., conclusion in words
[3] = RPC after 2 weeks at 37° C., 25 mM NaP/125 mM NaCl pH 7.0
[4] = after 2 weeks at 37° C., 25 mM NaP/125 mM NaCl pH 7.0
[5] = RPC, 2 weeks, 37° C., data from example 2

Molecule | 3 months, 37° C. Main peak (% of total protein) [1] | proportion of protein in the original form after 3 months at 37° C. versus PSI0242 after 2 weeks [1] | 2 weeks, 37° C. Main peak (% of total protein) [2] | Main peak (% of total protein) ([2]; pH 7) | RPC post peaks ([2]; pH 7) | RPC prepeaks ([2]; pH 7) | SDS-PAGE bands ([2]; pH 7) | stability when compared with PSI0242 [2] | Main peak (% of total protein) [2, 3] | RPC post peaks [2, 4] | RPC prepeaks [2, 4] | SDS-PAGE bands [2, 4] | 3 months, 37° C. Main peak (% of total protein) ([1]; RPC, 3 months, 37° C.) | 2 weeks, 37° C. Main peak (% of total protein) [2, 5]
PSI0379: C5 binding compound derived from PSI0242 with substitutions N52S, D53E and D60A (protein, Modified bacterial sequence) AEAKYAKEVLEAWDEIDRLPNLTIEQWLAFINKLDDDPSQSSELLSEAKKLSESQAPKVAGSLAEAKEAANAELDSYGVSDFYKRLIDKAKTVEGVEALKDAILAALP | 58 % of total protein | higher proportion of protein in the original form | 88 % of total protein | 88 % of total protein | 0 | 0 | 1 |  |  |  |  |  |  | 
PSI0340: modified C5 binding compound (protein, Modified bacterial sequence) AEAKYAKEVLEAWDEIDRLPNLTIEQWLAFINKLEDDPSQSSELLSEAKKLNDSQAPKVDGSLAEAKEAANAELDSYGVSDFYKRLIDKAKTVEGVEALKDAILAALP |  |  |  |  |  |  |  | increased stability | 67 % of total protein | 1 | 2 | 2 |  | 
PSI0403: C5 binding compound derived from PSI0242 with substitutions D53E and D60E (protein, Modified bacterial sequence) AEAKYAKEVLEAWDEIDRLPNLTIEQWLAFINKLDDDPSQSSELLSEAKKLNESQAPKVEGSLAEAKEAANAELDSYGVSDFYKRLIDKAKTVEGVEALKDAILAALP |  |  |  |  |  |  |  | increased stability | 77 % of total protein | 1 | 1 | 1 | 35 % of total protein | 77 % of total protein
PSI0404: C5 binding compound derived from PSI0242 with substitutions N52S and D60E (protein, Modified bacterial sequence) AEAKYAKEVLEAWDEIDRLPNLTIEQWLAFINKLDDDPSQSSELLSEAKKLSDSQAPKVEGSLAEAKEAANAELDSYGVSDFYKRLIDKAKTVEGVEALKDAILAALP |  |  |  |  |  |  |  | increased stability | 88 % of total protein | 0 | 1 | 1 | 46 % of total protein | 88 % of total protein
PSI0334: modified C5 binding compound, positions 52-53 substituted from ND to SE, X60 is D (protein, Modified bacterial sequence) AEAKYAKEVLEAWDEIDRLPNLTIEQWLAFINKLDDDPSQSSELLSEAKKLSESQAPKVDGSLAEAKEAANAELDSYGVSDFYKRLIDKAKTVEGVEALKDAILAALP |  |  |  |  |  |  |  | increased stability | 73 % of total protein | 0 | 1 | 1 | 16 % of total protein | 73 % of total protein
PSI0332: modified C5 binding compound with amino acid substitutions in the loop [L2] (protein, Modified bacterial sequence) AEAKYAKEVLEAWDEIDRLPNLTIEQWLAFINKLDRQPEQSSELLSEAKKLNDSQAPKVDGSLAEAKEAANAELDSYGVSDFYKRLIDKAKTVEGVEALKDAILAALP |  |  |  |  |  |  |  |  | 57 % of total protein | 1 | 1 | 2 |  | 
PSI0339: modified C5 binding compound (protein, Modified bacterial sequence) AEAKYAKEVLEAWDEIDRLPNLTIEQWLAFIAKLDDDPSQSSELLSEAKKLNDSQAPKVDGSLAEAKEAANAELDSYGVSDFYKRLIDKAKTVEGVEALKDAILAALP |  |  |  |  |  |  |  |  | 57 % of total protein | 1 | 2 | 2 |  | 
PSI0337: modified C5 binding compound (protein, Modified bacterial sequence) AEAKYAKEVLEAWDEIERLPNLTIEQWLAFINKLDDDPSQSSELLSEAKKLNDSQAPKVDGSLAEAKEAANAELDSYGVSDFYKRLIDKAKTVEGVEALKDAILAALP |  |  |  |  |  |  |  |  | 57 % of total protein | 1 | 2 | 2 |  | 
PSI0335: modified C5 binding compound (protein, Modified bacterial sequence) AEAKYAKEVLEAWDEIDRLPNLTIEQWLAFINKLDDDPSQSSELLSEAKKLNDSQAPKVDGSLAEAKVLANRELDKYGVSDFYKRLINKAKTVEGVEALKLHILAALP |  |  |  |  |  |  |  |  | 57 % of total protein | 1 | 2 | 2 |  | 
PSI0381: C5 binding compound derived from PSI0242 with substitutions N52E, D53S and D60E (protein, Modified bacterial sequence) AEAKYAKEVLEAWDEIDRLPNLTIEQWLAFINKLDDDPSQSSELLSEAKKLESSQAPKVEGSLAEAKEAANAELDSYGVSDFYKRLIDKAKTVEGVEALKDAILAALP |  |  |  |  |  |  |  | increased stability | 87 % of total protein | 0 | 0 | 1 | 46 % of total protein | 87 % of total protein
PSI0336: modified C5 binding compound (protein, Modified bacterial sequence) AEAKYAKEVLEAWSEIDRLPNLTIEQWLAFINKLDDDPSQSSELLSEAKKLNDSQAPKVDGSLAEAKEAANAELDSYGVSDFYKRLIDKAKTVEGVEALKDAILAALP |  |  |  |  |  |  |  |  | 57 % of total protein | 1 | 2 | 2 |  | 
PSI0369: C5 binding compound in which D60 and the entire linking moiety is absent (protein, Modified bacterial sequence) AEAKYAKEVLEAWDEIDRLPNLTIEQWLAFINKLDDDPSQSSELLSEAKKLNDSQAPLAEAKEAANAELDSYGVSDFYKRLIDKAKTVEGVEALKDAILAALP |  |  |  |  |  |  |  | increased stability; also recorded: more stable | 90 % of total protein | 1 | 1 | 2 |  | 
